Laboratory results: ChEMBL document CHEMBL4888484, “Replenishing the malaria drug discovery pipeline: Screening and hit evaluation of the MMV Hit Generation Library 1 (HGL1) against asexual blood stage Plasmodium falciparum ,using a nano luciferase reporter read-out” (2022)
Among all 150,000 compounds or so, about 540 (0.36%) showed an effect of 50% or more. This is one part of the list.

tested on: Plasmodium falciparum; experiment: Primary screen in NF54 nanoGlo assay, in single point, at 2uM, 72h; a lower Z score goes with more inhibition; assay type: functional, Erythrocyte; conditions: timepoint 72 hour

| SMILES | % Inhibition [%] | Z score |
| --- | --- | --- |
| Cc1ccc(C)c(S(=O)(=O)N2CCC[C@H](N3CCNCC3=O)C2)c1 | -6 | 0.86 |
| Cc1nc([C@H](C)NC(=O)c2c(C)[nH]c3c2C(=O)CCC3)c(C)s1 | -16 | 3.01 |
| CCn1nc(-c2cc(C)ccc2C)nc1N(C)C | -9 | 1.39 |
| CCOC(=O)c1cc(CNCCc2nc3ccccc3[nH]2)on1 | -2 | 0.42 |
| C[C@H]1CN(C(=O)c2cccc(S(=O)(=O)N3CCCCCCC3)c2)CCN1 | 5 | -0.8 |
| CC(C)[C@H](Cc1ccc(F)cc1)NC(=O)c1c[nH]nn1 | 1 | -0.14 |
| CCc1nc(C)c(NS(=O)(=O)c2ccc(C)c(C(=O)O)c2C)s1 | -6 | 1.05 |
| CC[C@H](NC(=O)Nc1nc(C)n(C)n1)c1ccccc1OC(F)F | 8 | -1.41 |
| O=C(CN1CCN(S(=O)(=O)c2ccc(Br)cc2)CC1)NC1CCCCCC1 | -8 | 0.99 |
| COC(=O)c1cc(NC(=O)N2CCO[C@H](C(=O)OC)C2)c(F)cc1F | 32 | -4.13 |
| Cc1nc(CS(=O)(=O)Cc2csc(COc3ccc(Cl)cc3)n2)no1 | -13 | 1.68 |
| Cc1cc(-c2nc(C(C)(C)C3=CCCCC3)no2)n[nH]1 | -4 | 0.6 |
| CNC(=O)c1cc2c(s1)CCN(C(=O)[C@@H]1CN(C)c3ccccc3O1)C2 | 14 | -1.99 |
| Cc1cc(CNC(=O)c2csc(=O)[nH]2)n(C)n1 | 39 | -1.31 |
| CC(C)C1CC(CC(=O)NCC2CS(=O)(=O)CCO2)CCO1 (stereo unspecified) | -2 | 0.31 |
| Cc1oc(-c2ccc(F)cc2)nc1CN1CC(=O)N(C)c2ccccc2C1=O | -15 | 1.89 |
| COc1nc2ccc(C)cc2cc1-c1noc(-c2cccnc2)n1 | -3 | 0.32 |
| C=CCC1(O)CN(Cc2nnn(-c3ccccc3)c2C2CC2)C1 | -1 | 0.2 |
| COc1ccc(C(=O)NC2(c3ccccc3)CCOCC2)cc1 | -5 | 0.85 |
| CC[C@@H](COC)NC(=O)Nc1cc(C)nn1CC(C)C | 8 | -1.53 |
| Cc1ccc2[nH]cc(-c3nc(N(C)C)ns3)c2c1 | 6 | -1.16 |

| SMILES | % Inhibition [%] | Z score |
| --- | --- | --- |
| O=C1C[C@@H](C(=O)NCc2ccccc2)N=C(N2CCCCC2)N1 | -5 | 0.61 |
| CC(C)(C)CC(=O)N1CCN(Cc2ccncc2)[C@@H]2CS(=O)(=O)C[C@@H]21 | -1 | 0.19 |
| CN1C(=O)N([C@H]2CCc3cc(Cl)ccc32)C(=O)C1(C)C | 1 | -0.07 |
| CC1(C)CN(C(=O)Nc2ccc(C(F)(F)F)cc2Cl)CCS1(=O)=O | 5 | -0.64 |
| CCc1nnc2n1CC(NC(C)C(=O)Nc1ccc(Cl)cn1)CC2 (stereo unspecified) | 0 | -0.01 |
| CC(C)c1cnc(CN2C(=O)N[C@]3(CCN(C(=O)OC(C)(C)C)C3)C2=O)o1 | 2 | -0.18 |
| Cc1cc(Nc2ccc(Cl)cn2)ncn1 | -5 | 0.54 |
| CC(C)OC[C@@H](O)CN1CCN(c2ccc(NC(=O)Cc3cccs3)cn2)CC1 | -2 | 0.31 |
| COc1cccc(CNC(=O)[C@@H]2C[C@@H](O)CN2C2CCN(C(=O)CCn3nc(C)cc3C)CC2)c1 | 9 | -1.15 |
| O=C(Cc1c(F)cccc1F)N1CCO[C@H](c2ncon2)C1 | -3 | 0.42 |
| Cc1cc(C)c(-n2cccn2)c(CN2CCC[C@H]2c2ccc(C(N)=O)s2)c1 | -10 | 1.55 |
| CN(Cc1ccc(Br)c(F)c1)C1CC[S+]([O-])CC1 (stereo unspecified) | 3 | -0.52 |
| NC(=O)Cc1noc(CCN2C(=O)c3ccccc3C2=O)n1 | -9 | 1.25 |
| COc1ccc(C(C)(C)c2nc(CO)no2)cc1 | 11 | -1.46 |
| CCOc1ccc([C@H](CC)NCc2nc(C)c[nH]2)cc1 | -22 | 2.24 |
| O=C(CCc1cccs1)Nc1cccc(C#Cc2ccccn2)c1 | 1 | -0.21 |
| CN(C(=O)c1ccco1)c1ccccc1-c1nc(-c2ccc(Br)o2)no1 | -3 | 0.48 |
| O=C1C2ON(c3ccccc3)C(c3ccc(F)c(Br)c3)C2C(=O)N1c1cccc2ccccc12 (stereo unspecified) | -14 | 2.04 |
| O=C(c1nc2ccccn2c1-c1ccc(F)cc1)N1CCCCCC1 | -2 | 0.33 |
| COc1cc2c(cc1OC)CN(c1cc(C(=O)NCc3ccccc3F)c3ccccc3n1)CC2 | 2 | -0.37 |
| Cc1nn(C)c(C)c1C(=O)N1CCOc2ccc(N(C)C)cc2C1 | -1 | 0.27 |

| SMILES | % Inhibition [%] | Z score |
| --- | --- | --- |
| CCc1noc(C)c1-c1noc(CC2(COC)CC2)n1 | -12 | 1.69 |
| Cc1sc(-c2nnc(C(=O)N3CCCC3)o2)cc1S(=O)(=O)NC1CCCCCC1 | -8 | 1.13 |
| COCCn1c(-c2ccccc2Cl)nnc1N1C[C@H](C)OC(C)(C)C1 | -4 | 0.55 |
| CN(Cc1cccn1C)C(=O)[C@H]1CCc2nncn2C1 | -9 | 1.38 |
| Cc1nc(CN2CCCC[C@H]2C(=O)Nc2cccc(-c3nnc(C)s3)c2)no1 | -18 | 2.77 |
| COc1ccc(N2C(=O)C[C@H](N(C)Cc3nc4ccccc4s3)C2=O)c(OC)c1 | -5 | 1.08 |
| O=C(Cc1c[nH]c2ccccc12)N1CC[C@H](Oc2cnccn2)C1 | -9 | 0.97 |
| Cc1ccc(OCCCN2CCN(C)CC2)c(Cc2ccccc2)c1 | -10 | 1.33 |
| O[C@@H]1CCN(Cc2cnc3c(-c4ccccc4)cnn3c2)C1 | 1 | -0.13 |
| Cc1cccc(OCCN2CC[C@@]3(CCCOC3)C2)c1 | 0 | 0.02 |
| Cc1ccc(C(=O)c2cnc3ccc(F)cc3c2N2CCCC2)cc1C | -8 | 0.98 |
| c1ccc(-c2ncn([C@H]3COC[C@@H]3N3CCCCC3)c2-c2ccncc2)cc1 | -14 | 1.91 |
| Cn1cccc1CN(Cc1cccs1)C(=O)COc1cccc2c1OC(C)(C)C2 | -1 | 0.11 |
| CC(C)c1cc(C(C)C)n([C@@H]2c3ccccc3C3(CCNCC3)[C@H]2O)n1 | -16 | 2.14 |
| CN1CC(C(=O)NC2CCOC2c2ccc(Cl)c(F)c2)CC1=O (stereo unspecified) | 5 | -0.62 |
| CC[C@H](NC(=O)N(C)C1CCOCC1)c1ccc2c(c1)CC(C)(C)O2 | -5 | 0.75 |
| CN1CCN(Cc2ccc(-c3cc4ccccc4n3C)nc2)CC1 | -12 | 1.31 |
| Cc1noc(C)c1S(=O)(=O)N1CCCCCC1 | -11 | 0.89 |
| COCC(=O)N[C@H]1[C@H](c2cccs2)N(C(=O)N2CCOCC2)CC[C@@]1(C)O | -15 | 2.33 |
| C[C@@H](C(N)=O)N(c1ccc2c(c1)OCCO2)S(C)(=O)=O | 0 | 0.08 |
| O=C(c1cc2c([nH]c1=O)CCCCC2)N1CC2CCC1C2 (stereo unspecified) | 29 | -3.25 |

| SMILES | % Inhibition [%] | Z score |
| --- | --- | --- |
| CC(C)Cc1noc(Cn2c(=O)n(C)c3ccncc32)n1 | -7 | 1.35 |
| Cc1nc2cc(C(=O)N3CCN(CCN4CCOCC4)CC3)ccc2s1 | -2 | 0.49 |
| OCCN(CCO)Cc1ncc(Cl)cc1Br | -3 | 0.51 |
| COC[C@](C)(NC(=O)c1cncc(-n2ccnn2)c1)c1ccccc1 | -8 | 0.99 |
| CN(C)[C@@H](CNC(=O)c1cccs1)C1CC1 | -15 | 1.65 |
| Cc1cc(C)cc(NC(=O)CC2=Nc3ccccc3S(=O)(=O)N2)c1 | -14 | 1.65 |
| Cc1ccccc1-n1ncc2c1CC(C)(C)C[C@@H]2NC1CCN(C(C)C)CC1 | 13 | -2.06 |
| CC(C)CCOc1ccc(C(=O)Nc2cc(S(=O)(=O)N3CCOCC3)ccc2N2CCOCC2)cc1 | 6 | -1.04 |
| CN(Cc1cc2n(n1)CCCNC2)Cc1nc(-c2ccccc2)cs1 | -12 | 1.6 |
| Cc1cc(C)n2ncc(CN3CCN(c4ccnc5nncn45)CC3)c2n1 | -4 | 0.55 |
| O=C(O)c1cn(C[C@H]2CCCN(C/C=C/c3ccco3)C2)nn1 | -19 | 4.07 |
| C[C@@H](Cc1cccs1)NS(=O)(=O)c1cccc2c1N=S=N2 | -4 | 0.72 |
| CC1(C)C[C@@H]1CNC(=O)N1CCN(CCc2ccccc2)C(=O)C1 | 6 | -0.97 |
| Cc1ccc(C(=O)Nc2nccnc2C(=O)N2CCN(c3ccc(F)cc3)CC2)cc1 | -6 | 0.87 |
| CC(NC(=O)N(C)CC1CCCO1)c1ccc(N2CCOCC2)cc1 (stereo unspecified) | -3 | 0.42 |
| Cc1c(C2=CCN(S(=O)(=O)c3ccc(C(C)C)cc3)CC2)c2ccccc2n1Cc1ccc(F)cc1 | 13 | -1.73 |
| Clc1cccc(N2CCN(Cn3c(COc4ccccc4)nc4ccccc43)CC2)c1 | -7 | 1.07 |
| O=S(=O)(c1cccnc1)N1CC[C@H](Oc2ncc(Cl)cn2)C1 | 4 | -0.65 |
| Cc1ccccc1CNC(=O)CCCc1nnc(C(=O)Nc2cccc(F)c2)s1 | -4 | 0.84 |
| COc1cccc(NC(=O)Cn2cnc3c(-c4ccccc4)nsc3c2=O)c1 | 3 | -0.53 |
